# Data: the supplement of paper PMC8728848
# The list shows a part of the results.
# Experiments:
# Assay in all cases: glycan array binding signal (z-score within array); higher = stronger binding
# Details in all cases: glycan notation: IUPAC condensed, linker removed
# [1] = molecular target: Gal(b1-3)GlcNAc(b1-6)GalNAc
# How it was run: (§1)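 Arrays were curated from the Consortium for Functional Glycomics database, 3228 in total, and kept only where the protein sequence was available. Binding is expressed as a within-array Z-score. This score was averaged across arrays of the same protein sequence at different concentrations or buffers and across linkers, and negative values can be read as non-binding.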
# [2] = molecular target: Gal(b1-3)GlcNAc(b1-6)[Gal(b1-3)]GalNAc
# How it was run: as §1
# [3] = molecular target: Gal(b1-3)GlcNAc6S
# How it was run: as §1
# [4] = molecular target: Gal(b1-3)[Fuc(a1-4)]GlcNAc
# How it was run: as §1
# [5] = molecular target: Gal(b1-3)[Fuc(a1-4)]GlcNAc(b1-2)Man
# How it was run: as §1
# [6] = molecular target: Gal(b1-3)[Fuc(a1-4)]GlcNAc(b1-2)Man(a1-3)[Gal(b1-3)[Fuc(a1-4)]GlcNAc(b1-2)Man(a1-6)]Man(b1-4)GlcNAc(b1-4)[Fuc(a1-6)]GlcNAc
# How it was run: as §1
# [7] = molecular target: Gal(b1-3)[Fuc(a1-4)]GlcNAc(b1-3)Gal(b1-3)[Fuc(a1-4)]GlcNAc
# How it was run: as §1
# [8] = molecular target: Gal(b1-3)[Fuc(a1-4)]GlcNAc(b1-3)Gal(b1-4)[Fuc(a1-3)]GlcNAc
# How it was run: as §1
# [9] = molecular target: Gal(b1-3)[Fuc(a1-4)]GlcNAc(b1-6)GalNAc
# How it was run: as §1
# [10] = molecular target: Gal(b1-3)[GlcNAc(b1-6)]GalNAc
# How it was run: as §1
# [11] = molecular target: Gal(b1-3)[Neu5Ac(a2-6)]GalNAc
# How it was run: as §1
# [12] = molecular target: Gal(b1-3)[Neu5Ac(a2-6)]GlcNAc(b1-4)Gal(b1-4)Glc
# How it was run: as §1
# [13] = molecular target: Gal(b1-3)[Neu5Ac(b2-6)]GalNAc
# How it was run: as §1
# [14] = molecular target: Gal(b1-4)Gal
# How it was run: as §1
# [15] = molecular target: Gal(b1-4)GalNAc(a1-3)[Fuc(a1-2)]Gal(b1-4)GlcNAc
# How it was run: as §1
# [16] = molecular target: Gal(b1-4)GalNAc(b1-3)[Fuc(a1-2)]Gal(b1-4)GlcNAc
# How it was run: as §1
# [17] = molecular target: Gal(b1-4)Glc
# How it was run: as §1
# [18] = molecular target: Gal(b1-4)Glc6S
# How it was run: as §1
# [19] = molecular target: Gal(b1-4)GlcNAc
# How it was run: as §1
# [20] = molecular target: Gal(b1-4)GlcNAc(a1-6)Gal(b1-4)GlcNAc
# How it was run: as §1
# [21] = molecular target: Gal(b1-4)GlcNAc(b1-2)Man
# How it was run: as §1
# [22] = molecular target: Gal(b1-4)GlcNAc(b1-2)Man(a1-3)Man(b1-4)GlcNAc(b1-4)GlcNAc
# How it was run: as §1
# [23] = molecular target: Gal(b1-4)GlcNAc(b1-2)Man(a1-3)[Gal(b1-4)GlcNAc(b1-2)Man(a1-6)]Man(b1-4)GlcNAc(b1-4)GlcNAc
# How it was run: as §1
# [24] = molecular target: Gal(b1-4)GlcNAc(b1-2)Man(a1-3)[Gal(b1-4)GlcNAc(b1-2)Man(a1-6)]Man(b1-4)GlcNAc(b1-4)[Fuc(a1-6)]GlcNAc
# How it was run: as §1
# [25] = molecular target: Gal(b1-4)GlcNAc(b1-2)Man(a1-3)[Gal(b1-4)GlcNAc(b1-2)Man(a1-6)][Gal(b1-4)GlcNAc(b1-4)]Man(b1-4)GlcNAc(b1-4)[Fuc(a1-6)]GlcNAc
# How it was run: as §1
# [26] = molecular target: Gal(b1-4)GlcNAc(b1-2)Man(a1-3)[Gal(b1-4)GlcNAc(b1-2)Man(a1-6)][GlcNAc(b1-4)]Man(b1-4)GlcNAc(b1-4)[Fuc(a1-6)]GlcNAc
# How it was run: as §1
# [27] = molecular target: Gal(b1-4)GlcNAc(b1-2)Man(a1-3)[GlcNAc(b1-2)Man(a1-6)]Man(b1-4)GlcNAc(b1-4)GlcNAc
# How it was run: as §1
# [28] = molecular target: Gal(b1-4)GlcNAc(b1-2)Man(a1-3)[GlcNAc(b1-4)][Gal(b1-4)GlcNAc(b1-2)Man(a1-6)]Man(b1-4)GlcNAc(b1-4)GlcNAc
# How it was run: as §1
# [29] = molecular target: Gal(b1-4)GlcNAc(b1-2)Man(a1-3)[Man(a1-6)]Man(b1-4)GlcNAc(b1-4)GlcNAc
# How it was run: as §1
# [30] = molecular target: Gal(b1-4)GlcNAc(b1-2)Man(a1-6)Man(b1-4)GlcNAc(b1-4)GlcNAc
# How it was run: as §1
# [31] = molecular target: Gal(b1-4)GlcNAc(b1-2)Man(a1-6)[GlcNAc(b1-2)Man(a1-3)]Man(b1-4)GlcNAc(b1-4)GlcNAc
# How it was run: as §1
# [32] = molecular target: Gal(b1-4)GlcNAc(b1-2)Man(a1-6)[Man(a1-3)]Man(b1-4)GlcNAc(b1-4)GlcNAc
# How it was run: as §1
# [33] = molecular target: Gal(b1-4)GlcNAc(b1-2)[Gal(b1-4)GlcNAc(b1-4)]Man(a1-3)[Gal(b1-4)GlcNAc(b1-2)Man(a1-6)]Man(b1-4)GlcNAc(b1-4)GlcNAc
# How it was run: as §1
# [34] = molecular target: Gal(b1-4)GlcNAc(b1-2)[Gal(b1-4)GlcNAc(b1-4)]Man(a1-3)[Gal(b1-4)GlcNAc(b1-2)[Gal(b1-4)GlcNAc(b1-6)]Man(a1-6)]Man(b1-4)GlcNAc(b1-4)GlcNAc
# How it was run: as §1
# [35] = molecular target: Gal(b1-4)GlcNAc(b1-2)[Gal(b1-4)GlcNAc(b1-4)]Man(a1-3)[GlcNAc(b1-4)][Gal(b1-4)GlcNAc(b1-2)Man(a1-6)]Man(b1-4)GlcNAc(b1-4)GlcNAc
# How it was run: as §1
# [36] = molecular target: Gal(b1-4)GlcNAc(b1-2)[Gal(b1-4)GlcNAc(b1-4)]Man(a1-3)[GlcNAc(b1-4)][Gal(b1-4)GlcNAc(b1-2)[Gal(b1-4)GlcNAc(b1-6)]Man(a1-6)]Man(b1-4)GlcNAc(b1-4)GlcNAc
# How it was run: as §1
# [37] = molecular target: Gal(b1-4)GlcNAc(b1-2)[Gal(b1-4)GlcNAc(b1-6)]Man(a1-6)[Gal(b1-4)GlcNAc(b1-2)Man(a1-3)]Man(b1-4)GlcNAc(b1-4)GlcNAc
# How it was run: as §1
# [38] = molecular target: Gal(b1-4)GlcNAc(b1-2)[Gal(b1-4)GlcNAc(b1-6)]Man(a1-6)[Gal(b1-4)GlcNAc(b1-2)Man(a1-3)]Man(b1-4)GlcNAc(b1-4)[Fuc(a1-6)]GlcNAc
# How it was run: as §1
# [39] = molecular target: Gal(b1-4)GlcNAc(b1-2)[Gal(b1-4)GlcNAc(b1-6)]Man(a1-6)[GlcNAc(b1-4)][Gal(b1-4)GlcNAc(b1-2)Man(a1-3)]Man(b1-4)GlcNAc(b1-4)GlcNAc
# How it was run: as §1
# [40] = molecular target: Gal(b1-4)GlcNAc(b1-2)[Gal(b1-4)GlcNAc(b1-6)]Man(a1-6)[GlcNAc(b1-4)][Gal(b1-4)GlcNAc(b1-2)[Gal(b1-4)GlcNAc(b1-4)]Man(a1-3)]Man(b1-4)GlcNAc(b1-4)[Fuc(a1-6)]GlcNAc
# How it was run: as §1
# [41] = molecular target: Gal(b1-4)GlcNAc(b1-3)Gal(b1-3)GalNAc
# How it was run: as §1
# [42] = molecular target: Gal(b1-4)GlcNAc(b1-3)Gal(b1-3)GlcNAc
# How it was run: as §1
# [43] = molecular target: Gal(b1-4)GlcNAc(b1-3)Gal(b1-4)Glc
# How it was run: as §1
# [44] = molecular target: Gal(b1-4)GlcNAc(b1-3)Gal(b1-4)GlcNAc
# How it was run: as §1
# [45] = molecular target: Gal(b1-4)GlcNAc(b1-3)Gal(b1-4)GlcNAc(b1-2)Man(a1-3)[Gal(b1-4)GlcNAc(b1-3)Gal(b1-4)GlcNAc(b1-2)Man(a1-6)]Man(b1-4)GlcNAc(b1-4)GlcNAc
# How it was run: as §1
binder,measurement,setting,value
"EPL1 (Trichoderma atroviride), A0PCX2 (protein) MQLSNLFKLALFTAAVSADTVSYDTGYDDASRSLTVVSCSDGTNGLITRYHWQTQGQIPRFPYIGGAQAVAGWNSPNCGTCWKLTYSGKTIYVLAIDHTAAGFNIGLDAMNALTNGNAVALGRVSATASQVAVSNCGL",glycan array binding signal (z-score),[1],-0.18
same,glycan array binding signal (z-score),[2],0.023
same,glycan array binding signal (z-score),[3],-0.524
same,glycan array binding signal (z-score),[4],-0.24
same,glycan array binding signal (z-score),[5],-0.149
same,glycan array binding signal (z-score),[6],-0.059
same,glycan array binding signal (z-score),[7],0.594
same,glycan array binding signal (z-score),[8],-0.205
same,glycan array binding signal (z-score),[9],-0.249
same,glycan array binding signal (z-score),[10],-0.027
same,glycan array binding signal (z-score),[11],-0.218
same,glycan array binding signal (z-score),[12],0.17
same,glycan array binding signal (z-score),[13],0.127
same,glycan array binding signal (z-score),[14],-0.162
same,glycan array binding signal (z-score),[15],0.709
same,glycan array binding signal (z-score),[16],-0.032
same,glycan array binding signal (z-score),[17],-0.231
same,glycan array binding signal (z-score),[18],-0.064
same,glycan array binding signal (z-score),[19],-0.107
same,glycan array binding signal (z-score),[20],-0.176
same,glycan array binding signal (z-score),[21],-0.089
same,glycan array binding signal (z-score),[22],-0.491
same,glycan array binding signal (z-score),[23],-0.15
same,glycan array binding signal (z-score),[24],0.06
same,glycan array binding signal (z-score),[25],-0.401
same,glycan array binding signal (z-score),[26],0.122
same,glycan array binding signal (z-score),[27],-0.496
same,glycan array binding signal (z-score),[28],-0.52
same,glycan array binding signal (z-score),[29],0.704
same,glycan array binding signal (z-score),[30],-0.711
same,glycan array binding signal (z-score),[31],0.321
same,glycan array binding signal (z-score),[32],-0.327
same,glycan array binding signal (z-score),[33],0.026
same,glycan array binding signal (z-score),[34],0.128
same,glycan array binding signal (z-score),[35],-0.305
same,glycan array binding signal (z-score),[36],-0.32
same,glycan array binding signal (z-score),[37],0.245
same,glycan array binding signal (z-score),[38],0.663
same,glycan array binding signal (z-score),[39],-0.501
same,glycan array binding signal (z-score),[40],0.025
same,glycan array binding signal (z-score),[41],-0.243
same,glycan array binding signal (z-score),[42],-0.08
same,glycan array binding signal (z-score),[43],-0.362
same,glycan array binding signal (z-score),[44],-0.261
same,glycan array binding signal (z-score),[45],0.321
